Laboratory results as given in PubChem BioAssay AID2675 (National Center for Advancing Translational Sciences (NCATS), 2010).
Screen size: about 280,000 compounds; about 100 (0.036%) were called active. This list was built around the results that the source calls inconclusive (neither active nor inactive); the mix of calls is not that of the screen. Calls follow the shape of the dose curve; as a rule, active = well fitted inhibition curve with a large enough effect in the signal ratio, with a control signal flat (not every such curve was filed as active); inconclusive = small, poorly fitted or top-dose-only effect, or effect the other way, or a change in a side signal; inactive = no such curve, though single readings can be large or run the other way; the % refers to the signal ratio. Potencies beside an inconclusive call are fits to weak or partial responses and may not hold up. A note “side channel” means that the fit belongs to a control or component signal, not to the main read-out.

Each compound was assayed against Muscleblind-like protein 1 (Homo sapiens) (UniProt Q9NR56) (assay: qHTS Assay for Inhibitors of MBNL1-poly(CUG) RNA binding). Settings: TR-FRET MBNL1-His/biotin-(CUG)12 binding, 665/545 ratio; activity change, negative = inhibition: at 57.5 µM (top of the series).
Chain of UniProt Q9NR56 (Q9NR56 whole entry, looked up): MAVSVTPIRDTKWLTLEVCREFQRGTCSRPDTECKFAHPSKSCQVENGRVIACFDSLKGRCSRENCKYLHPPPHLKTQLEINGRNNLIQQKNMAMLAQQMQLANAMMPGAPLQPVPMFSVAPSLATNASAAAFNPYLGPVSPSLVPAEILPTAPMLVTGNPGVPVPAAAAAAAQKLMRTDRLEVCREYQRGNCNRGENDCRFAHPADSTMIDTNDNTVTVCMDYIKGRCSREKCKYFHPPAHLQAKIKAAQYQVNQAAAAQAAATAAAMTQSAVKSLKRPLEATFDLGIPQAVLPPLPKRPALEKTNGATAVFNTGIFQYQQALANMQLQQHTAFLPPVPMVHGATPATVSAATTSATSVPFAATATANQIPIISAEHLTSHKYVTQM
In short: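 MBNL1-His + Biotin-(CUG)12, cpd titration 92 nM–58 uM; Tb anti-His Ab 0.055 ng/ul, SA-XL665 5 nM (final); 60 min RT; ratiometric 665/545 nm, Ex 340 nm; normalized to buffer and full-complex controls.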
% is scaled to controls: 0 for no effect and ±100 for the full control effect; potency is read from the fitted curve at half-maximal effect; tags tell the direction and shape of the fitted curve or compound fluorescence and quenching.

| Structure (SMILES) | Potency | activity change, negative = inhibition |
| --- | --- | --- |
| CCC(=O)N1CCN(c2cc(NCC3CCCO3)c(F)cc2[N+](=O)[O-])CC1 (configuration not stated) | inconclusive: 14.1 µM [quencher, side channel, partial curve] |  |
| COc1cc(/C=C/c2sc3ccccc3[n+]2CCCS(=O)(=O)[O-])ccc1O | inconclusive: 12.6 µM [quencher, side channel, partial curve] |  |
| COc1ccc(NC(=S)NC(NC(=O)C(C)C)C(Cl)(Cl)Cl)c([N+](=O)[O-])c1 (configuration not stated) | inconclusive: 11.2 µM [quencher, side channel, partial curve] |  |
| CC(C)(C)c1nn2cnnc2n(/N=C/c2cccc3ccccc23)c1=O | inconclusive: 17.8 µM [quencher, partial curve] |  |
| Cc1cc(C(=O)N2CCN(c3ccc([N+](=O)[O-])cc3)CC2)co1 | inconclusive: 7.94 µM [quencher, side channel, partial curve] |  |
| Cc1cc(NC(=O)COC(=O)CC2CCCC2)c([N+](=O)[O-])cc1C | inconclusive: 25.1 µM [quencher, side channel, single point] |  |
| O=C(NCc1ccc2c(c1)OCO2)c1ccc2c(c1)N(Cc1c(F)cccc1Cl)C(=O)CS2 |  | inactive: 4.65% |
| CNC(=S)NNC(=O)c1ccc(=O)n(Cc2ccc(Cl)cc2Cl)c1 |  | inactive: -1.47% |
| O=C(COC(=O)c1cc([N+](=O)[O-])ccc1N1CCOCC1)Nc1cccc(F)c1 | inconclusive: 12.6 µM [quencher, side channel, partial curve] |  |
| CC(Sc1nnc(C(F)(F)F)n1C)C(=O)Nc1ccc(S(N)(=O)=O)cc1 (configuration not stated) | inconclusive: 158 µM [inhibitor, single point] |  |
| CC(=O)c1cc(CN2C(=O)c3ccccc3C2=O)cs1 | inconclusive: 35.5 µM [quencher, side channel, single point] |  |
| Cc1ccc(Oc2nnc(-c3cccs3)c3ccccc23)cc1C | inconclusive: 7.08 µM [quencher, side channel, single point] |  |
| CCCNC(=O)Nc1cc(OC)c(OC)cc1Cc1nccc2cc(OC)c(OC)cc12 | active: 25.1 µM |  |
| COC(=O)C1=C(C)N(C)C(=O)/C1=C\c1cccs1 | inconclusive: 4.47 µM [quencher, side channel, single point] |  |
| COC1=C/C(=C/c2c(N)n3nc(CC(=O)N4CCOCC4)sc3nc2=O)C=CC1=O | inconclusive: 39.8 µM [quencher, side channel, single point] |  |
| Cc1cc(OCc2nn[nH]n2)c2c(-c3ccccc3)cc(=O)oc2c1 | inconclusive: 39.8 µM [quencher, single point] |  |
| O=C(O)c1c(-n2cccc2)sc2c1CCCC2 | inconclusive: 100 µM [inhibitor, single point] |  |
| CCc1ccc(N(CC(=O)NCC2CCCO2)C(=O)CCC(=O)Nc2nccs2)cc1 (configuration not stated) |  | inactive: -7.28% |
| CC(C)c1ccc(S(=O)(=O)/N=C2\C=C(NS(=O)(=O)c3ccccc3)C(=O)c3ccccc32)cc1 | inconclusive: 11.2 µM [quencher, side channel, partial curve] |  |

| Structure (SMILES) | Potency | activity change, negative = inhibition |
| --- | --- | --- |
| CC1CCC(NS(=O)(=O)c2cccc3nsnc23)CC1 (configuration not stated) | inconclusive: 15.8 µM [quencher, side channel, partial curve] |  |
| Cc1cc(NC(=O)CCC(=O)N(Cc2cccs2)C(C(=O)NC2CCCC2)c2ccccc2)no1 (configuration not stated) | inconclusive: 3.55 µM [quencher, side channel, partial curve] |  |
| Cc1cc2nc(SCC(=O)N(C)C)c3c(c2cc1C)CCCC3 |  | inactive: 5.63% |
| CCCNC(=S)N1CCCC(c2nc3ccccc3[nH]2)C1 (configuration not stated) | inconclusive: 63.1 µM [inhibitor, single point] |  |
| CCOC(=O)c1ccc(NC(=S)NCc2ccc(S(N)(=O)=O)cc2)cc1 |  | inactive: -13.9% |
| CC1(C)CC(=O)C(C=Nc2cc(C(=O)c3ccccc3)ccc2N)=C(O)C1 | inconclusive: 25.1 µM [quencher, side channel, single point] |  |
| CC(=O)Nc1ccc(S(=O)(=O)N(C)CC(=O)N/N=C/c2ccncc2)cc1 | inconclusive: 25.1 µM [quencher, side channel, partial curve] |  |
| COc1ccc(OC)c(CNS(=O)(=O)c2cc(CN3C(=O)c4cccnc4C3=O)ccc2OC)c1 | inconclusive: 14.1 µM [quencher, side channel, partial curve] |  |
| CSc1ncccc1C(=O)OCC(=O)c1cc2ccccc2o1 | inconclusive: 22.4 µM [quencher, side channel, single point] |  |
| COc1ccc(/C=C2\Oc3cc(OCC(N)=O)ccc3C2=O)cc1OC | inconclusive: 14.1 µM [quencher, partial curve] |  |
| NC(=O)c1cc2ccccc2o/c1=N/NC(=O)c1ccccc1 | inconclusive: 8.91 µM [quencher, side channel, full curve, poor fit] |  |
| Cc1cccc(OC(=O)NCCOC(=O)N(O)c2ccc(Cl)cc2)c1 | inconclusive: 89.1 µM [fluorescent, side channel, partial curve] |  |
| CNc1ncc(C(=O)c2ccc(Cl)cc2)s1 | inconclusive: 14.1 µM [quencher, side channel, partial curve] |  |
| CC(=O)C1C(=O)c2c(cccc2[N+](=O)[O-])C1=Nc1cccc(Cl)c1 (configuration not stated) | inconclusive: 20 µM [quencher, side channel, partial curve] |  |
| Cn1c(C(=O)NCCN2CCCCCC2)cc2c(=O)n(C)c3ccccc3c21 | inconclusive: 126 µM [inhibitor, single point] |  |
| O=C(Nc1ccc(Cl)cn1)c1ccccc1[N+](=O)[O-] | inconclusive: 15.8 µM [quencher, side channel, partial curve] |  |
| CCCCN1C(=O)c2ccc(C(=O)NCc3ccco3)cc2C1=O | inconclusive: 15.8 µM [quencher, side channel, partial curve] |  |
| CCOc1cc(/C=C2\CCCc3c2nc2ccccc2c3C(=O)O)ccc1OC | inconclusive: 14.1 µM [quencher, side channel, partial curve] |  |
